Results published in publication PMC4336329 (PLoS ONE, 2015).
Hit rate of the full screen: of about 310,000 compounds, about 2,200 (0.71%) showed an effect of 50% or more. Effects have a minus sign here. Some of the results follow.

biological target: human ether-à-go-go-related gene (hERG) potassium channel (human, UniProt Q12809); experiment: primary screen, population patch clamp on CHO cells stably expressing hERG
Sequence (Q12809 whole entry, looked up): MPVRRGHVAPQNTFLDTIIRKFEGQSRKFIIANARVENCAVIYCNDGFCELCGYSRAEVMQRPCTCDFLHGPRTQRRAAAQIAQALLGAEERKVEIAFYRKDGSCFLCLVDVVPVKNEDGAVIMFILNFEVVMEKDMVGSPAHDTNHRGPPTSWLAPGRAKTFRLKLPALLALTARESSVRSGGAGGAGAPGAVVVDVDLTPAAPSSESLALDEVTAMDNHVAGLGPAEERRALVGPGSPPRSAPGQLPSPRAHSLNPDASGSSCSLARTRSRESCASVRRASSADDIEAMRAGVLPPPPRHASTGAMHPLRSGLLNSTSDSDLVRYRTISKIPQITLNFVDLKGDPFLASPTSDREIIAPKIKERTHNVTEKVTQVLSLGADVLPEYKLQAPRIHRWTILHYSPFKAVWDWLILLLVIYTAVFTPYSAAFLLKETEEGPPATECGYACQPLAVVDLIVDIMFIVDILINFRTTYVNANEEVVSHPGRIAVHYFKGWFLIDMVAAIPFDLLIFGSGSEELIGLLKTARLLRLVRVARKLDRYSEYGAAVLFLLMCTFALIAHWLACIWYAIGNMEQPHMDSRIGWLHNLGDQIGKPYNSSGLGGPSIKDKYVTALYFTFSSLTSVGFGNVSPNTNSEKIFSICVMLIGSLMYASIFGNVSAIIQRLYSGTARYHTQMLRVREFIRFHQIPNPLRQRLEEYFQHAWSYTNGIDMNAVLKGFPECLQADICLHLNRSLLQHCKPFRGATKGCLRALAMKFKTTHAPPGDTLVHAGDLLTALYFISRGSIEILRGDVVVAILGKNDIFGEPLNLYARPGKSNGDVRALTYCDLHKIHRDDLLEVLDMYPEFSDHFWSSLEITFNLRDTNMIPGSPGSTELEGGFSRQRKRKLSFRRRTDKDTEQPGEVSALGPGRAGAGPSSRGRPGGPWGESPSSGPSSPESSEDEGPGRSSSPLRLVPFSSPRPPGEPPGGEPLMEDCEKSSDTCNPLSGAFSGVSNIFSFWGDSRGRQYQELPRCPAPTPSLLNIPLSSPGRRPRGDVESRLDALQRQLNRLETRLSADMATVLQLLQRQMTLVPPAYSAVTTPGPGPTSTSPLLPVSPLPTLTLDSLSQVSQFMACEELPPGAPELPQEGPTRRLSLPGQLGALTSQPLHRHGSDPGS

SMILES	hERG current change (%, negative = inhibition) at 1uM
COc1cc(OC)c(OC)cc1CN(C)CCc1ccccn1.O=C(O)C(=O)O	-1.06%
CC(=O)CC(c1ccccc1)S(=O)(=O)c1ccc([N+](=O)[O-])cc1 (stereo not shown)	15.5%
O=C1COc2ccc(C(=O)CCl)cc2N1	0.663%
O=C(OCC(=O)N1CCC(Cc2ccccc2)CC1)c1ccc(CO)cc1	-5.29%
O=S(=O)([O-])C(c1ccccc1)[n+]1ccccc1 (stereo not shown)	10.6%
O=c1ccc2cc(S(=O)(=O)Nc3ccc(Br)cc3)ccc2o1	15.2%
CCCCn1c(N)c(N(CC(C)C)C(=O)C2CCN(S(=O)(=O)c3ccc(OCC)cc3)CC2)c(=O)[nH]c1=O	10.1%
COc1cccc(CN2CCNC(=O)C2CC(=O)NCCc2cccc(C)n2)c1OC (stereo not shown)	4.11%
Cc1ccc(C(=O)Nc2cccc(C(F)(F)F)c2)cc1Nc1cncnc1.O=C(O)C(F)(F)F	-12.9%
CCOc1cc(C(=S)N2CCCCC2)ccc1OS(=O)(=O)c1ccc(Br)cc1	4.26%
N#Cc1ccc(CN2CCN(C(=O)c3cc(C4CC4)nn3-c3ccccc3)CC2)cc1	-5.21%
COCCNC(=S)Nc1ccc2[nH]c(=O)[nH]c2c1	7.39%
O=C(Nc1ccccc1Cl)c1cc2ccccc2o/c1=N\O	6.22%
Cc1cc(C)n(-c2ccc(Oc3ccccc3)c(S(=O)(=O)O)c2)n1	12.6%
CCCc1ccc2oc(C(=O)N(C)Cc3nccs3)c(C)c2c1	6.46%
CCOc1ccc(/C=N/NC(=O)Cn2ccnc2C)cc1	12.4%
COc1ccc(C2C(C#N)=C(N)Oc3cc(C)n(Cc4ccncc4)c(=O)c32)cc1 (stereo not shown)	-8.44%
CCOc1ccccc1CNC(=O)c1cn(C)c(=O)c2c1c1ccccc1n2C	6.45%
CCC1(C)NC(=O)N(CC(=O)NCC(=O)Nc2c(C)cc(C)cc2C)C1=O (stereo not shown)	10%
COc1cc(OC)cc(C(=O)Nc2ccn(C)n2)c1	15.2%
O=c1[nH]cccc1-c1nc2ccccc2n1Cc1ccc(F)cc1	1.04%
COc1cccc2sc(Nc3nc(-c4cc5ccccc5oc4=O)cs3)nc12	10.7%
COc1ccc(S(=O)(=O)N(C)CC(=O)NC2CCCC2)cc1Cl	13.2%
Br.O=C(c1ccc(Br)cc1)c1sc(N2CCOCC2)nc1-c1ccccc1	-5.61%
CCOC(=O)C1=C(CC)Nc2ccccc2N=C1NC(=O)Nc1ccccc1OC	15.6%
Cn1cc(CN2CCCC(CNC(=O)c3ccc4c(c3)OCO4)C2)c2ccccc21 (stereo not shown)	-11.7%
Cc1ccccc1OCC(=O)NC(=S)Nc1ccccc1N1CCN(S(C)(=O)=O)CC1	8.23%
Cc1ccc(S(=O)(=O)N2CCN(C(=O)NCc3ccc(F)cc3)CC2)c(C)c1	13.9%

SMILES	hERG current change (%, negative = inhibition) at 1uM
CC(=O)Nc1nc(C(F)(F)F)cs1	12.2%
COc1ccc(-c2c(-c3ccc4c(c3)OCO4)noc2C)cn1	11.8%
CC(C)c1ccc(C2NC(C(=O)O)CS2)cc1 (stereo not shown)	-4.5%
CC(=O)c1cccc(NC(=S)Nc2ccc(F)cc2)c1	12.1%
CCCC12CN(C(=O)c3ccc(OC)cc3)CC(C)(CN(C(=O)c3ccc(OC)cc3)C1)C2=O	8.7%
Cc1nc2ccccc2c(=O)n1/N=C/c1ccc(OC(F)F)cc1	10.8%
CCn1nc(C)cc1C(=O)NC1CCCc2c1cnn2-c1ccc(C)c(C)c1 (stereo not shown)	12.1%
Nc1c(C(=O)N2CCCCC2)sc2nc3c(cc12)CCCC3	7.24%
CCOc1ccc(OCCSc2nc(N)cc(=O)[nH]2)cc1	6.35%
CCOc1ccc(NC(=O)NCc2cccnc2)cc1	18.7%
CC(C)Cc1cc(C(=O)N2CCC(N3CCC(C(=O)N4CCCC4)CC3)CC2)n[nH]1	7.43%
CC(C)CCn1nnnc1C(c1ccccc1F)N1CCC(C(N)=O)CC1 (stereo not shown)	9.2%
O=C(N/C(=C\c1ccc(Br)cc1)C(=O)N1CCCC1)c1ccccc1F	-49.5%
CCOC(=O)/C(C#N)=C/c1c(N2CCCCCC2)nc2ccccn2c1=O	16.3%
CSc1ccc(S(=O)(=O)NCC(=O)OCC(=O)N2CCC(C)CC2)cc1[N+](=O)[O-]	8.74%
Cc1nc2sc(C(c3ccc(Br)cc3)N3CC(C)OC(C)C3)c(O)n2n1 (stereo not shown)	5.48%
CC(C)CCN(C(=O)CCCSc1nc2ccccc2[nH]1)c1c(N)n(Cc2ccccc2)c(=O)[nH]c1=O	-12.5%
CCOc1ccc(S(=O)(=O)N2CCCC(C(=O)NCCN3CCOCC3)C2)cc1Cl (stereo not shown)	-2.37%
O=C1NC(=O)/C(=C/c2ccc(-c3cccc([N+](=O)[O-])c3)o2)S1	20.4%
c1ccc2c(c1)CC/C2=N/Nc1nc2ccccc2[nH]1	11.1%
Cc1cc(C(=O)CSc2nc3ccccc3c(=O)n2C)c(C)n1Cc1ccc2c(c1)OCO2	9.41%
COc1ccccc1C(=O)Nc1nnc(S(=O)(=O)N2CCCCCC2)s1	11.7%
COCCn1c(CN2CCN(C(=O)c3ccco3)CC2)nc2c1c(=O)n(C)c(=O)n2C	-2.52%
Cc1cc(C)cc(OCC(=O)OCC(=O)Nc2c(C)n(C)n(-c3ccccc3)c2=O)c1	5.78%
CN(C)C(=O)c1ccc2c(c1)C1C3CCC(C3)C1C(c1ccccc1)N2 (stereo not shown)	8.03%
O=C(CSc1nc(N2CCOCC2)nc(N2CCOCC2)n1)Nc1ccccc1F	6.42%
COc1ccc(N2CCN(C(=O)C3Cc4ccccc4CN3C(=O)c3ccco3)CC2)cc1 (stereo not shown)	-15.9%
